# Experimental data reported in PubChem BioAssay (NCATS).
# The inconclusive results got no clear call from the source; some entries with a clear call stand among them for comparison. Where the call is inconclusive, the potency comes from a doubtful curve fit. Activity calls are given as the source filed them. Calls follow the shape of the dose curve; as a rule, active = well fitted cell-killing curve with a large enough effect; inconclusive = small, poorly fitted or top-dose-only effect, or effect the other way; inactive = flat fitted curve, though single readings scatter.
# Assay: S16 Schwann cell viability assay (CellTiter-Glo assay) (AID 624031);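 also: cellular ATP luminescence as a viability measure; nearly all actives have a fitted effect of over 70% in size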
# Details: S16 rat Schwann cells viability, 24 h; series mostly up to 57.5 µM; activity change, negative = cytotoxicity: at the top concentration
# From the text: Charcot-Marie-Tooth-Association [CMTA]
# National Center for Advancing Translational Sciences [NCATS]
# Charcot-Marie-Tooth (CMT) disease was first characterized by Jean-Martin Charcot and Pierre Marie in France and, independently, by Howard Henry Tooth in England in 1886. CMT is one of the most common inherited neurological diseases, affecting approximately 1 in 2,500 Americans. […] The most prevalent type of CMT is known as CMT1A and caused by a duplication of the PMP22 gene which leads to over-expression of this protein. PMP22 is a glycosylated intrinsic membrane protein accounting for 2-5% of the myelin protein content, and its over-expression results in demyelination and subsequently axonal loss.
# A pair of cellular transcription-based assays was developed in the S16 rat Schwann cell lines (Hai, M., et al., 2002) stably transfected with orthogonal reporters - firefly luciferase (Fluc) and beta-lactamase (beta-Lac) - whose expression is driven by an intronic regulatory element of the PMP22 gene (Jones, E.A., et al., 2011) to recapitulate endogenous expression of PMP22. A comprehensive library of approved drugs, the NCGC Pharmaceutical Collection (Huang, R., et al., 2011), was screened in the cross-validating platform of the orthogonal reporter assays to identify drug modulators inhibitory towards PMP22 expression.
# A set of counter-screens was devised to address non-specific activity of the library. An ATP-dependent CellTiter-Glo assay (developed by Promega Corp) was utilized to control cell viability. In addition, biochemical Fluc enzyme assay was performed to assess direct inhibition of the Fluc enzymatic activity.
# Hai, M., Muja, N., DeVries, G.H., Quarles, R.H. and Patel, P.I. Comparative analysis of Schwann cell lines as model systems for myelin gene transcription studies. J Neurosci Res, 2002. 69(4): pp 497-508
# Huang, R., Southall, N., Wang, Y., Yasgar A., Shinn P., Jadhav, A. , Nguyen, D.-T. and Austin, C.P., The NCGC pharmaceutical collection: a comprehensive resource of clinically approved drugs enabling repurposing and chemical genomics. Sci Transl Med, 2011. 3(80): p. 80ps16.
# Native S16 cells were seeded in white solid-bottom 1536 well plates at between 500-750 cells/6uL in DMEM medium containing 10% FBS, w/o phenol red. After overnight incubation at 37 degree Celsius/5% C02, 23 nL of compounds or DMSO were delivered to each well using a pin tool, followed by 24h-incubation at 37 degree Celsius/5% C02. Then one volume of CellTiter-Glo assay reagent (Promega) was added to each well for cell viability measured by a ViewLux plate reader (PerkinElmer). The % activity was determined by normalizing to the average readings from wells containing no cells relative to DMSO-treated cells (0% Activity). The concentration-effect curves were then classified based on curve quality (r2), response magnitude and degree of measured activity.
# Potency is read from the fitted curve at half-maximal effect; tags tell the direction and shape of the fitted curve.
Structure (SMILES),"activity change, negative = cytotoxicity",Potency
Cc1cc(=O)oc2cc(O)ccc12,inactive: -16.6% [at 25.7 µM],
Nc1nc2c(ncn2COCCO)c(=O)[nH]1,inactive: 5.45% [at 25.7 µM],
NC(=O)OCC(COC(N)=O)c1ccccc1,inactive: 5.06%,
CCCCCCCCCCCC(CC1OC(=O)C1CCCCCC)OC(=O)C(CC(C)C)NC=O (stereo not given),,"inconclusive: 9.07 µM [cytotoxic, partial curve, poor fit]"
CNCCCC12CCC(c3ccccc31)c1ccccc12,,active: 32.2 µM
NC12CC3CC(CC(C3)C1)C2,inactive: -0.437%,
C[C@@H](NCCCc1cccc(C(F)(F)F)c1)c1cccc2ccccc12,,active: 12.8 µM
Cc1nc(Nc2ncc(C(=O)Nc3c(C)cccc3Cl)s2)cc(N2CCN(CCO)CC2)n1,,"inconclusive: 36.1 µM [cytotoxic, partial curve, poor fit]"
COC(=O)C1=C(C)NC(C)=C(C(=O)OCCCN2CCC(c3ccccc3)(c3ccccc3)CC2)C1c1cccc([N+](=O)[O-])c1 (stereo not given),,active: 16.1 µM
CN1CCC(=C2c3ccccc3C=Cc3ccccc32)CC1,,"inconclusive: 8.09 µM [cytotoxic, single point]"
COc1ccccc1OCCNCC(O)COc1cccc2[nH]c3ccccc3c12 (stereo not given),,"inconclusive: 28.7 µM [cytotoxic, partial curve]"
COc1ccccc1N1CCN(CC(O)COc2cccc3ccccc23)CC1 (stereo not given),,"inconclusive: 40.5 µM [cytotoxic, single point]"
O=C(O)c1cc(=O)[nH]c(=O)[nH]1,inactive: -0.0924%,
COC1=C(OC)C(=O)C(CCCCCCCCCCO)=C(C)C1=O,,"inconclusive: 32.2 µM [cytotoxic, partial curve, poor fit]"
Clc1ccc(COC(Cn2ccnc2)c2ccc(Cl)cc2Cl)cc1 (stereo not given),inactive: -19.2%,
Cc1cccc(C)c1OCC(=O)N[C@@H](Cc1ccccc1)[C@@H](O)C[C@H](Cc1ccccc1)NC(=O)[C@H](C(C)C)N1CCCNC1=O,,"inconclusive: 36.1 µM [cytotoxic, single point]"
Cc1cc(=O)c2c(O)c3c(O)cc(=O)c4c3c3c(cc(O)c1c23)C(C)(C)C=4O,,"inconclusive: 8.09 µM [cytotoxic, partial curve]"
CCOC(=O)C1=C[C@]2(CC)CCCN3CCc4c(n1c1ccccc41)[C@@H]32,,"inconclusive: 32.2 µM [cytotoxic, partial curve]"
Clc1ccc(C(Cn2ccnc2)OCc2ccsc2Cl)c(Cl)c1 (stereo not given),,"inconclusive: 40.5 µM [cytotoxic, single point]"
CN1CCC(=C2c3ccccc3CC(=O)c3sccc32)CC1,,"inconclusive: 25.6 µM [cytotoxic, partial curve, poor fit]"
COCCCCC(=NOCCN)c1ccc(C(F)(F)F)cc1,,"inconclusive: 40.5 µM [cytotoxic, single point]"
CCc1nc(N)nc(N)c1-c1ccc(Cl)cc1,inactive: -0.552%,
Cc1ncc([N+](=O)[O-])n1CCO,inactive: 3.09%,
CCCNCC(O)COc1ccccc1C(=O)CCc1ccccc1 (stereo not given),,"inconclusive: 28.7 µM [cytotoxic, partial curve, poor fit]"
O=c1[nH]cnc2c1ncn2[C@H]1CC[C@@H](CO)O1,inactive: 6.45%,
